Experimental data reported in PubChem BioAssay AID504832 (National Center for Advancing Translational Sciences (NCATS), 2011).
Screen size: about 310,000 compounds; about 18,000 (5.8%) were called active. Inconclusive means that the source gave no clear call. Such entries were picked first, then a sample of the others. The call rests on the fitted dose curve; in most records, active means well fitted inhibition curve with a large enough effect; inconclusive means small, poorly fitted or top-dose-only effect, or another doubt; inactive means no such curve, though single readings can be large or run the other way. No potency is given beside an inconclusive call; the fits are too rough.
On the % scale 0 is the no-effect control and ±100 the full control effect; potency means the concentration at half of the fitted maximal effect; tags describe the fitted curve by direction and shape.

Experiment: Primary qHTS for delayed death inhibitors of the malarial parasite plastid, 48 hour incubation
Conditions: P. falciparum luciferase growth in erythrocytes; series mostly up to 28.7 µM; activity change, negative = inhibition: at the top concentration
Outline: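 In quantitative HTS format, infected erythrocytes bearing luciferase-reporter parasites were treated for a single generation at 37 C. Luminescence after adding detection reagent served as the growth measure.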
With `COC(=O)c1ccc(OC)c(CSc2nnc(COc3ccc(OC)cc3)o2)c1` the Potency was inconclusive [inhibitor, single point]. With `Cc1cc(C)c([N+](=O)[O-])cc1-c1ccc(/C=N/c2c(-c3ccco3)nc3ccccn23)o1` the Potency was inconclusive [inhibitor, single point]. For `COC(=O)COc1cccc(NC(=O)c2cccc(C)c2)c1`, the “activity change, negative = inhibition” value was inactive: 9.52%. For `C=CCn1c(SCC(=O)NC)nnc1C12CC3CC(CC(C3)C1)C2`, the Potency was inconclusive [inhibitor, partial curve]. For `CC(CCc1ccccc1)NS(=O)(=O)c1ccccc1Cl` (stereo not given), the Potency was inconclusive [inhibitor, partial curve, poor fit]. For `CN1CCN(CC(=O)NC23CC4CC(CC(C4)C2)C3)CC1`, the “activity change, negative = inhibition” value was inactive: 0%. In the case of `CCCCCn1c(=O)c(C(=O)Nc2ccncc2)c(O)c2ccccc21`, the Potency was inconclusive [inhibitor, full curve, poor fit]. In the case of `Cc1onc(-c2ccccc2)c1NC(=O)Nc1ccc(OC(F)F)cc1`, the Potency was active: 6.57 µM. For `CC(C)CCOP(N)(=O)Oc1ccccc1Cl` (stereo not given), the Potency was inconclusive [inhibitor, single point]. With `CN(C)c1ccc(NC(=O)/C=C/c2ccccc2Cl)cc1` the Potency was inconclusive [inhibitor, partial curve]. In the case of `CCOC(=O)c1ccc(NC(=O)CN2CCN(C(=O)C3CCCO3)CC2)cc1` (stereo not given), the “activity change, negative = inhibition” value was inactive: -1.58%. For `COc1ccc(Cn2c(C)c(C)c(C#N)c2NC(=O)Nc2ccc(Cl)cc2)cc1`, the Potency was inconclusive [inhibitor, single point]. For `CCOC(=O)c1cnc(SCC(=O)OCC(=O)NC2CCS(=O)(=O)C2)nc1N` (stereo not given), the “activity change, negative = inhibition” value was inactive: 4.44%. For `Cc1ccnc2nc(C(=O)OCC(=O)NC3CCCC(C)C3C)nn12` (stereo not given), the “activity change, negative = inhibition” value was inactive: 5.73%. For `Cc1cccc(C(=O)Nc2sc3c(c2C(=O)O)CCC3)c1`, the “activity change, negative = inhibition” value was inactive: 40.9%. For `O=C(/C=C/c1ccccn1)c1cc(Cl)cc(Cl)c1O`, the Potency was inconclusive [inhibitor, single point]. With `O=[N+]([O-])c1ccc(N2CCCC2)c2ncccc12` the “activity change, negative = inhibition” value was inactive: 13%. With `COc1ccc(C)cc1Cn1nnc2ccccc21` the Potency was inconclusive [inhibitor, single point]. With `CC(C)Cc1nnc(NC(=O)CCC(=O)Nc2ccccc2)s1` the Potency was inconclusive [inhibitor, single point]. For `CC1CCc2cc(F)ccc2N1C(=O)CSc1nnc2c3ccccc3n(C)c2n1` (stereo not given), the Potency was inconclusive [inhibitor, full curve, poor fit]. With `COc1ccc(C2C(C(=O)O)CCC(=O)N2c2ccc(C)cc2)cc1OC` (stereo not given) the “activity change, negative = inhibition” value was inactive: -0.277%. For `Oc1ccc(/C=N/Nc2ccccc2)cc1`, the “activity change, negative = inhibition” value was inactive: -23.2%. In the case of `Cc1ccc(C(C)C)c(OCCN2C(=O)NC(C)(C)C2=O)c1`, the Potency was inconclusive [inhibitor, partial curve, poor fit]. For `CCc1cc2c(=O)c(-c3ccc4c(c3)OCCO4)c(C)oc2cc1OS(C)(=O)=O`, the Potency was inconclusive [inhibitor, partial curve, poor fit]. In the case of `COc1ccc(NC(=O)CSCC(=O)Nc2ccc(S(=O)(=O)N3CCOCC3)cc2)cc1`, the Potency was inconclusive [inhibitor, single point]. With `COc1cc(-c2csc(N3CCOCC3)n2)cc(OC)c1OC` the Potency was inconclusive [inhibitor, partial curve, poor fit]. In the case of `CCCn1ncc(C(=O)NC2CCCN(Cc3ccc(Cl)cc3)C2)c1C` (stereo not given), the Potency was inconclusive [inhibitor, single point]. In the case of `O=C(COc1ccc(Br)cc1CNCCc1ccccc1)NCc1ccccc1`, the Potency was inconclusive [inhibitor, single point]. In the case of `CCCC(c1nnnn1CC1CCCO1)N1CCN(c2nc3ccccc3s2)CC1` (stereo not given), the Potency was active: 11.7 µM. For `C=CCNC(=S)N/N=C/c1ccc(-c2cccc([N+](=O)[O-])c2)o1`, the Potency was inconclusive [inhibitor, partial curve]. With `CCOC(=O)C1CCN(c2nc3c(C)cccn3c(=O)c2/C=C(\C#N)S(=O)(=O)c2ccccc2)CC1` the Potency was active: 9.28 µM. In the case of `CCOc1cc(C(=O)N(CC)CC(=O)Nc2c(F)cccc2F)ccc1OCC(=O)N1CCCCC1`, the Potency was inconclusive [inhibitor, single point]. In the case of `CNc1ccccc1C(C)(C)c1cc(-c2cccc(OC)c2)no1`, the Potency was inconclusive [inhibitor, partial curve]. With `CCOC(=O)N1CCN(S(=O)(=O)c2ccc(Cl)cc2)CC1` the Potency was inconclusive [inhibitor, single point]. For `Cc1ccc(-c2ccc(SCC(=O)Nc3ccc4c(c3)OCCO4)nn2)cc1`, the “activity change, negative = inhibition” value was inactive: 85.5%. With `CCN(CC)C(=O)CC(c1ccc(F)cc1)c1ccc(OC(C)C)cc1` (stereo not given) the Potency was inconclusive [inhibitor, single point]. For `COc1ccc(C(CNC(=O)c2ccc(NS(=O)(=O)c3ccc4c(c3)OCCO4)cc2)N(C)C)cc1` (stereo not given), the Potency was inconclusive [inhibitor, single point]. In the case of `Cc1c(C(=O)Nc2cccc(Cl)c2)cn2c(nc3ccccc32)c1C#N`, the Potency was inconclusive [inhibitor, partial curve]. With `Clc1ccc(C(OCCN2CCCCC2)c2ccccc2)cc1` (stereo not given) the Potency was inconclusive [inhibitor, single point]. In the case of `COc1ccc(Oc2cn[nH]c2-c2ccc(OC)cc2O)cc1`, the Potency was active: 6.57 µM. For `Cc1ccc2nc(N3CC(=O)Nc4ccccc43)nc(-c3ccccc3)c2c1`, the “activity change, negative = inhibition” value was inactive: -8.68%. For `COc1ccc(NC(=O)c2cc(S(=O)(=O)Nc3ccc(OC)cc3)cs2)cc1`, the Potency was inconclusive [inhibitor, single point]. In the case of `COc1ccc(CNCC(O)(c2ccccc2)c2ccccc2)cc1OC`, the Potency was inconclusive [inhibitor, partial curve, poor fit]. With `COc1ccc(N2CCN(S(=O)(=O)c3c(C)nc4sccn4c3=O)CC2)cc1` the “activity change, negative = inhibition” value was inactive: 4.63%. For `C/C(=N\Nc1nc(-c2ccccc2O)nc2ccccc12)c1ccccc1`, the Potency was active: 0.522 µM.
